# Results: PubChem BioAssay AID1240 (Sanford-Burnham Center for Chemical Genomics, 2008)
# In all, about 50,000 compounds went through this assay and about 800 (1.6%) showed an effect of 50% or more. Some of the results follow.
# Target: Bcl-2-like protein 10 (Homo sapiens) (UniProt Q9HD36)
# Assay: Phenotype converters, Bcl-B/TR3 peptide binding displacement, primary biochemical FP (AID 1240);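 also: 0% = Bcl-B with tracer peptide and DMSO and 100% = tracer peptide lacking Bcl-B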
# Conditions: GST-Bcl-B / FITC-TR3 peptide fluorescence polarization; stronger effect = higher value; compound at 3.75 mg/L
# UniProt Q9HD36, sequence (Q9HD36 whole entry, looked up): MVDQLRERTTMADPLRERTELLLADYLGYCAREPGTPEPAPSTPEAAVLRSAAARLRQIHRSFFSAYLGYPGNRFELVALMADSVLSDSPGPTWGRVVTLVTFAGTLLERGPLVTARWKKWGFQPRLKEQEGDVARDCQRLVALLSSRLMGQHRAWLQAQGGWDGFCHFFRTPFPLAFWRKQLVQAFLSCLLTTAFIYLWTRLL
row,SMILES,displacement [%]
1,O=C(Nc1ccccc1C(=O)Nc1ccccc1Cl)c1ccncc1,-6.4
2,COc1ccc(/C=C(\C#N)C(=O)O)cc1,6.5
3,CCc1ccccc1NC(=O)C(=O)NCc1ccc(F)cc1,6.2
4,CCOC(=O)c1c(Cl)cc(Cl)c(NC(C)=O)c1[N+](=O)[O-],0.4
5,CCCC(C)NS(=O)(=O)c1ccc(C)cc1 (configuration not stated),5.1
6,CCOC(=O)Oc1ccc2c3c(c(=O)oc2c1)CCC3,-1.2
7,Cc1ccnc(N=Cc2ccc(C=Nc3cc(C)ccn3)cc2)c1,-2.9
8,O=C(Nc1sc2c(c1C(=O)Nc1ccccc1)CCC2)c1ccccc1Br,4.8
9,Cc1ccc(S(=O)(=O)N2CCN(Cc3ccccc3)CC2)cc1[N+](=O)[O-],8.5
10,COc1cccc(/C=C2/C=C(c3ccc(C)cc3)OC2=O)c1OC,3.6
11,CC(=O)Nc1ccc(NS(=O)(=O)c2ccc(F)cc2)cc1,-7.3
12,CC(Oc1cccc(Cl)c1)C(=O)Nc1ccc([N+](=O)[O-])cc1Cl (configuration not stated),-9.2
13,CCOC(=O)c1ccc(NC(=O)COc2ccc(Cl)cc2Br)cc1,-16.3
14,Cc1ccc(S(=O)(=O)N(CC(=O)N/N=C/c2ccc(F)cc2)c2cccc3cccnc23)cc1,-1.7
15,COCCCN1C(=O)C(=Cc2c(NCCc3ccccc3)nc3c(C)cccn3c2=O)SC1=S,-14.7
16,COC(=O)C1=C(C)NC(=O)CC1c1ccc(Cl)c(Cl)c1 (configuration not stated),9.1
17,Cc1ccc(C)n1-c1cccc2cccnc12,35.7
18,Cc1ccc(/C=N/NC(=O)CN(c2cccc(C(F)(F)F)c2)S(=O)(=O)c2ccccc2)c(C)c1C,4.5
19,O=C1c2ccccc2C(=Nc2cc([N+](=O)[O-])ccc2O)C1c1ccc2ccccc2c1 (configuration not stated),1.2
20,NS(=O)(=O)c1ccc(NC(=O)COc2ccc(Cl)cc2)cc1,6.9
21,CNS(=O)(=O)c1ccc(N/C=C(\C=O)c2nc3cc(Cl)ccc3o2)cc1,12.6
22,COc1ccc(-n2c(C)c([N+](=O)[O-])c3ccc(O)c(CN(CCO)CCO)c32)cc1,19.7
23,CC12c3ccccc3C(c3ccccc31)C1C(=O)N(c3ccc(I)cc3)C(=O)C12 (configuration not stated),-3.8
24,O=c1oc2cc(OCc3c(F)cccc3Cl)ccc2cc1-c1ccccn1,8.8

row,SMILES,displacement [%]
1,O=C1NC(=S)S/C1=C/c1ccc(Sc2ccccc2)o1,-90
2,COc1ccccc1C1NC(=O)CS1 (configuration not stated),-9.1
3,C/C(=N\N1CCN(Cc2ccc(Cl)cc2)CC1)c1ccc(O)cc1,-6.9
4,O=C(NN1C(=O)/C(=C/c2ccc(O)c(O)c2)SC1=S)c1ccccc1Br,73
5,COc1ccc(NCC(O)Cn2c3ccc(Br)cc3c3cc(Br)ccc32)c(OC)c1 (configuration not stated),5.9
6,NC(=O)c1c(NC(=O)CCC2CCCCC2)sc2c1CCCCC2,20.7
7,CCOc1cc(C(=O)Nc2cccc(NC(=O)c3ccco3)c2)cc(OCC)c1OCC,-9.4
8,O=C(/C=C/c1ccccc1)N1CCC(Cc2ccccc2)CC1,-12.8
9,O=C(c1cccc(S(=O)(=O)N2CCCCC2)c1)N1CCCc2ccccc21,5.7
10,O=C(O)c1ccc(N2C(=O)C=CC2=O)cc1Cl,-2
11,O=C(COc1ccc2ccccc2c1)NCCCc1ccccc1,37.2
12,O=C(/C=C/c1ccc2c(c1)OCO2)NCCSCc1cccc(Cl)c1,27.3
13,CC(=O)c1cc2ccc([N+](=O)[O-])cc2oc1=O,9.6
14,CCOc1cccc(/C=N/NC(=O)CSc2nc3ccccc3n2CC)c1O,-8.8
15,CCN(CC)S(=O)C12CC3CC(CC(C3)C1)C2 (configuration not stated),-6
16,O=C(CSc1nnc(-c2ccco2)n1-c1ccccc1)NCc1ccccc1,-0.6
17,COc1ccc(C(=O)NC2=NCCS2)c(OC)c1,4.5
18,CCc1nnc(NS(=O)(=O)c2ccc(NS(=O)(=O)c3ccc(NC(C)=O)cc3)cc2)s1,-6.5
19,COc1ccc(S(=O)(=O)Oc2ccc3ccccc3c2)cc1,40.9
20,C=CCN1C(=O)NC(=O)/C(=C\c2ccc(OCc3ccc(Cl)cc3)c(OC)c2)C1=O,9.5
21,CCOc1cc(C=C2C(=O)NC(=S)NC2=O)ccc1OCc1ccccc1F,8.8
22,Cc1ccc(-n2ccc(N)c(C#N)c2=O)cc1,3.3
23,Cc1ccccc1C(=O)Nc1ccc(-c2cnc(-c3ccc(NC(=O)c4ccccc4C)cc3)nc2)cc1,11.6
24,O=C(Nc1ccc(-c2ccc(Cl)cc2)cc1)C1CC1,4.5

row,SMILES,displacement [%]
1,COC(=O)/C(C#N)=C/c1ccc(-c2ccc(S(N)(=O)=O)cc2)o1,-46.6
2,CCOC(=O)C1=C(N)Oc2cc(O)ccc2C1c1cccnc1 (configuration not stated),-8
3,COC(=O)c1ccc(NC(=O)COc2ccc3ccccc3c2)cc1,7.3
4,CCN1C(=O)CSC1=NC(C)Cc1ccccc1 (configuration not stated),-3.5
5,COc1ccc(OCCNC(=O)Nc2ccc(Br)cc2)cc1,39.9
6,CCCNC(=O)n1ccc(C(=O)N2CCOCC2)n1,-4
7,Cc1cc(=O)n2[nH]c(-c3cccc(Cl)c3)cc2n1,3.1
8,C=CCNS(=O)(=O)c1ccc(C)c([N+](=O)[O-])c1,-12.8
9,CCCCn1c(/N=C/c2ccc(C)cc2O)nc2ccccc21,0.4
10,O=C1NC(=O)C(=Cc2cc(Br)ccc2OCc2ccc(Cl)cc2Cl)C(=O)N1,13.2
11,O=C(Nc1ccccc1C(=O)N1CCCCC1)c1cccnc1,14.6
12,O=C(CCc1ccccc1)Nc1ccccc1Br,8.5
13,COc1ccc(OC)c(NC(=O)c2ccc(I)cc2)c1,10.3
14,Cc1cc(I)ccc1NC(=O)c1ccc([N+](=O)[O-])c(C)c1,-5.6
15,CCc1ccc(OCC(=O)Nc2ccc3ccccc3c2)cc1,11.4
16,COc1ccc(CC(=O)c2ccc(C(=O)Cc3ccc(OC)c(OC)c3)cc2)cc1OC,18.6
17,CCOc1ccc(N2C(=O)CC(NCCNc3ccc([N+](=O)[O-])cn3)C2=O)cc1 (configuration not stated),0.1
18,COc1ccccc1OCC(=O)NNC(=O)Cc1cccs1,-13.1
19,COc1cccc(C(=O)NCc2ccccc2OC)c1,-5.4
20,Cc1nnc(C)n1/N=C/c1cccc([N+](=O)[O-])c1,10.6
21,O=C1CS/C(=N\N=C\c2cn(Cc3ccc(Cl)cc3Cl)nc2-c2ccccc2)N1,-4.2
22,COc1cc(C(=O)OCCN2CCOCC2)cc(OC)c1OC,-2.1
23,Cc1ccc(Cl)c(OCCCCNCCO)c1,-9.3
24,CCN(CC)S(=O)(=O)c1cccc(C(=O)NC2CCCCC2)c1,-8
